Over roughly 33,000 sequences, “E-score (-0.5 to 0.5)” has its median near -0.032; the highest 2% begin near 0.36. This is one part of the list.
Molecular target: T1, Sko1 (UniProt Q02100)
T1 sequence: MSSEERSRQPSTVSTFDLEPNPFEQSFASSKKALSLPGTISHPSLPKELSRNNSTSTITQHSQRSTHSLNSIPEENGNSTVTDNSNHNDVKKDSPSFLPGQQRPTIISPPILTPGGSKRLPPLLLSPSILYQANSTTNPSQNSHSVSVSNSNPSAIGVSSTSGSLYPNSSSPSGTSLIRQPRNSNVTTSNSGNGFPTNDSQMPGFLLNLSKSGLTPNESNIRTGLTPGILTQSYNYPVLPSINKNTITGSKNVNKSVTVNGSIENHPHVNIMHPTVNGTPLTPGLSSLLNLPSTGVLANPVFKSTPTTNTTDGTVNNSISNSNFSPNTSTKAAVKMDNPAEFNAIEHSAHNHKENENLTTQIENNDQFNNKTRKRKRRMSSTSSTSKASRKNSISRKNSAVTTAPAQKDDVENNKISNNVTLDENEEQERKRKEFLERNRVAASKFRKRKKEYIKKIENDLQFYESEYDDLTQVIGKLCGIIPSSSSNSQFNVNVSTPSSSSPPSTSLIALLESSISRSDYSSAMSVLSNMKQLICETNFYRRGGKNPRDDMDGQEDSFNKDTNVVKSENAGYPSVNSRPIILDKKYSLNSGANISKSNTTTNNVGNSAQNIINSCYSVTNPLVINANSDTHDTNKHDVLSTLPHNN
Assay: PBM E-score (8-mer binding enrichment) (E-score (-0.5 to 0.5)); higher = stronger / more preferred TF binding; most listed sequences are background and not binding sites
Details: protein concentration: 200 nM; construct: GST-full length
Method in brief: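 PURExpress in vitro transcription/translation supplied GST-tagged yeast transcription factors, either full-length or DNA-binding domain. Applied at about 100-200 nM to universal all-10-mer Agilent arrays double-stranded by primer extension, the bound protein was detected with fluorescent anti-GST. E-scores, modified Wilcoxon-Mann-Whitney statistics, were given by the Universal PBM Analysis Suite to ungapped eight-base words pooled with their reverse complements after masliner normalisation.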

Row | Sequence | PBM E-score
1 | GCTCCAGA | -0.126
2 | AATCCCAC | -0.00495
3 | CGTCGCCC | 0.0479
4 | CCCCAGCC | -0.251
5 | CGCACCCC | 0.00905
6 | TAACAGAA | 0.21
7 | TTAGCCAA | -0.108
8 | CCGGGTAG | -0.314
9 | CGTTCGCA | 0.168
10 | CGTAACGA | 0.366
11 | ACTGCGGC | -0.189
12 | GCTGGGAA | -0.283
13 | ATCTCTCA | 0.0358
14 | TAAGTGTA | 0.148
15 | CCTTTATC | -0.205
16 | CTCCCAGC | -0.297
17 | TAAGGATA | 0.0924
18 | ATTATTCA | 0.173
19 | CATTTTGA | 0.0281
20 | CGCTTAAA | 0.0298
21 | CGACCCCG | -0.339
22 | AGACTACG | 0.136

Row | Sequence | PBM E-score
23 | GCATACAC | 0.0391
24 | AAATATAG | 0.324
25 | GAGGCTCA | -0.271
26 | TAACAATA | 0.234
27 | CAGTGTAC | -0.0149
28 | ATGGTTGA | -0.0732
29 | ACGGCCAC | -0.146
30 | CACAACTA | 0.171
31 | CTCACAAA | -0.0672
32 | CGCGTGGC | 0.0474
33 | AATTCAGG | -0.0821
34 | AATCAATG | 0.212
35 | GGTGCTAA | -0.112
36 | AATCTACG | 0.215
37 | GTGTGAGA | 0.0436
38 | AATGTTAG | 0.0972
39 | CACAAGCG | -0.164
40 | GCTCCTGA | -0.203
41 | GAGAGAAC | -0.15
42 | ACTGGAAT | -0.05
43 | CGCAGGGC | 0.00913
44 | CGGAATAG | 0.0415

Row | Sequence | PBM E-score
45 | TATCTTCA | 0.114
46 | CGGTTGCC | -0.197
47 | ACAATGAG | -0.0472
48 | CCACGCTC | -0.181
49 | ACGGTGAC | 0.166
50 | ATCGACAC | -0.143
51 | CTTCACAA | -0.168
52 | GCGAAGTA | 0.038
53 | CACGGTGG | -0.0844
54 | ACCGGGGC | -0.318
55 | AAGCGGAC | -0.269
56 | CGAGAAAC | -0.116
57 | AACCGCTT | -0.113
58 | ATTCGCTG | 0.0204
59 | ATCGGGAG | -0.138
60 | GACCGCGC | -0.262
61 | TACCATGA | 0.0739
62 | AGGGCCCG | -0.204
63 | ACCAATCA | 0.0229
64 | GTCTTTCA | 0.0742
65 | ACGTTTGC | 0.348
66 | ACAGACAT | -0.00702

Row | Sequence | PBM E-score
67 | CCGTCATA | 0.368
68 | CAATTAGC | -0.00611
69 | ACACTTTA | 0.0468
70 | CTGATAAG | -0.0338
71 | ACTAACTC | 0.0486
72 | ACGTCGAT | 0.432
73 | CCCCCACA | -0.325
74 | CCACGCCC | -0.165
75 | ACTTGTCT | -0.0281
76 | AGACGGGA | -0.199
77 | ATTCTCCA | 0.0217
78 | CTGCCGAC | -0.335
79 | CCCCGGAA | -0.304
80 | CAACCTGG | 0.0125
81 | ACATAAAA | 0.277
82 | AAATCAGA | 0.192
83 | AACAGTGG | -0.244
84 | ATCTTTCG | -0.0822
85 | CCTACCCC | -0.273
86 | GATAGTAC | -0.00348
